Measurements published in the supplement of paper PMC3334620.
The full ranking holds about 33,000 sequences; the median of “E-score (-0.5 to 0.5)” is about -0.056, and the highest 2% start at about 0.38. The list shows a part of the results.

Target: Stb4 (UniProt P50104)
Assay: PBM E-score (8-mer binding enrichment) (E-score (-0.5 to 0.5)); higher = stronger / more preferred TF binding; most listed sequences are background and not binding sites
Conditions: protein concentration: 200 nM; construct: GST-DNA-binding domain
Outline: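 Full-length yeast transcription factors or their DNA-binding domains, GST-tagged and expressed with PURExpress, were applied at about 100-200 nM to universal all-10-mer Agilent arrays. These arrays had been made double-stranded by primer extension on fresh or once-stripped slides. Detection used fluorescent anti-GST, normalisation used masliner, and E-scores for ungapped eight-base words pooled with reverse complements came from the Universal PBM Analysis Suite.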

| Sequence | PBM E-score |
| --- | --- |
| CCCCTCCC | 0.206 |
| TAAAAGTA | 0.116 |
| AATCAAGA | -0.216 |
| ATGGCCCA | 0.0885 |
| GTTCGCCA | -0.127 |
| AAAGGACT | 0.0649 |
| GCCCGCAA | 0.00771 |
| CATCAAAA | -0.0393 |
| ACAGATAT | -0.15 |
| AAACTAAG | 0.00403 |
| ACGTTTCG | 0.0854 |
| ATCATCAT | -0.0104 |
| GAATAGGA | -0.076 |
| CGGAGCAA | 0.281 |
| CGGATCTA | 0.391 |
| CTCTTACA | -0.378 |
| ATGTAAAC | 0.0204 |
| ACTCCCGC | 0.234 |
| ACACGCCA | 0.0744 |
| TAGAGCGA | -0.157 |
| ACTAAAAC | -0.00594 |
| TACGAAAA | -0.0536 |
| AGCTGTCC | -0.277 |
| GGGTGTCA | 0.0604 |
| TACGCCTA | -0.219 |

| Sequence | PBM E-score |
| --- | --- |
| AGAGTTTG | -0.149 |
| CGTCACCA | -0.219 |
| AAACCTGC | -0.121 |
| CCCCGACC | 0.101 |
| AATAATGC | 0.0744 |
| CGGCAACA | 0.365 |
| GCTTGCAA | -0.268 |
| TAATCTCA | -0.0951 |
| ACGGGCTA | -0.139 |
| CTTCTGAA | -0.0669 |
| CCGCGACG | 0.165 |
| ACATGGCG | -0.0821 |
| AAGTTAAA | -0.204 |
| ATAGGTAG | -0.122 |
| CGGGACGA | 0.263 |
| ACTTAAGC | -0.0689 |
| AAAAAGAG | -0.186 |
| GCGAATAA | -0.0694 |
| AGACCGAG | 0.294 |
| AAGTCCAG | -0.193 |
| CCAGGGCC | -0.175 |
| GGAATGGA | 0.0531 |
| ACGATAAG | 0.0585 |
| AATTCTAC | -0.17 |
| CTGGGAAG | -0.173 |

| Sequence | PBM E-score |
| --- | --- |
| AAAGGGCC | -0.0436 |
| CAAATGTC | -0.067 |
| TCATTTCA | -0.15 |
| CTGAGAAC | -0.0911 |
| ATTGGCGC | 0.00693 |
| GGACAAAA | 0.243 |
| CGGCATTC | 0.226 |
| GGGGTATA | 0.06 |
| AGCCCACA | -0.188 |
| ACATGGAC | -0.268 |
| ATGCACCC | 0.109 |
| CACTCGAC | -0.106 |
| ACGACTAG | -0.171 |
| CATGGCGC | 0.0301 |
| CACGACGC | -0.018 |
| ACGGGGCG | 0.0234 |
| CGCCCGCC | 0.0876 |
| CGCATCCG | 0.408 |
| AGATTTGC | -0.0414 |
| ATCCATTA | 0.0166 |
| ATACATCG | 0.115 |
| AACGCATG | 0.0295 |
| AACAAGTT | -0.0149 |
| AGTGCAGA | -0.0602 |
| AGTACAGC | -0.108 |

| Sequence | PBM E-score |
| --- | --- |
| AAAACCGC | -0.0584 |
| AGGTCGTA | -0.232 |
| ACTCCTCA | -0.249 |
| ATACAATC | -0.0768 |
| AAACTCCA | -0.203 |
| CGTGTGGC | -0.262 |
| AGTCATGG | -0.16 |
| ACTACCAG | -0.145 |
| CTCACACC | -0.0292 |
| AATAAAGT | -0.104 |
| AGAGAATG | -0.212 |
| GCTATGCC | -0.0935 |
| CCCTGCTA | -0.236 |
| TCTATCAA | -0.247 |
| ATCGCCAA | -0.259 |
| GGGTCGCA | 0.0668 |
| ACCATGCG | -0.00748 |
| ATGTCCTC | -0.121 |
| CATTGGTA | 0.0662 |
| CGCCTATC | -0.0131 |
| GCTCTTGA | -0.0465 |
| ATCAAGAA | -0.199 |
| AGTATCCA | 0.0731 |
| ACCCCTAT | -0.143 |
| AAGATGAA | -0.0212 |

| Sequence | PBM E-score |
| --- | --- |
| GTCAACGA | -0.347 |
| CGACCTGC | 0.108 |
| CGATGTGC | 0.161 |
| CAGTGTGA | -0.0509 |
| TGATTACA | -0.128 |
| AGCTACTG | -5e-05 |
| TAACGCCA | -0.0587 |
| ATGCCTAG | -0.0631 |
| CAACCTCC | 0.0663 |
| CGATCCGA | 0.475 |
| CTGCGCAA | -0.0522 |
| CAAAACAC | 0.00586 |
| TAACTACA | -0.00302 |
| CACCCTCC | 0.104 |
| CTGTATGA | 0.0729 |
| ACGTAGAG | -0.16 |
| AACGAGCT | -0.256 |
| AAACCTTC | 0.0498 |
| CCTCAGCG | -0.135 |
| GATTGTTA | 0.0433 |
| CCAGTAGC | 0.124 |
| ATGAACTG | -0.0676 |
| AGTGGAAG | 0.012 |
| CCCGACTC | 0.298 |
| ACTCCCAC | -0.111 |

| Sequence | PBM E-score |
| --- | --- |
| GATGGCCA | -0.215 |
| GTGCGTTA | -0.0338 |
| TGATACAA | -0.224 |
| ACCATTCT | -0.0382 |
| GACAGGAA | 0.0874 |
| CACCCTGA | -0.0952 |
| AATACTCG | 0.0844 |
| CTACAAGA | -0.114 |
| CGTCTGTC | -0.0668 |
| GACATGAA | -0.129 |
| CGCTTTCA | 0.0445 |
| CGCGCACG | 0.0643 |
| CTCTAACC | 0.0253 |
| CAGCTCCG | 0.21 |
| CTTCTAAC | -0.111 |
| AACTATAA | 0.0489 |
| TAAGCCTA | -0.0531 |
| CGTAGCAG | -0.168 |
| GGACTTCA | -0.0404 |
| ACTTGGCA | -0.228 |
| AGCCTATG | -0.207 |
| GTTCTCAA | -0.264 |
| CGACGCAC | 0.0089 |
| GATGGACC | -0.0264 |
| ACTTCGCG | 0.116 |

| Sequence | PBM E-score |
| --- | --- |
| ACTACAAG | -0.119 |
| CTCAGGTC | -0.129 |
| CATGACCC | -0.0921 |
| GCCACCAC | -0.263 |
| CTCAACCC | -0.118 |
| CACTTGCC | 0.0414 |
| ATTTATGG | -0.152 |
| CTGCCTAA | -0.169 |
| GGAACAGA | 0.206 |
| CATGTAGC | -0.212 |
| AAGCGTGC | -0.14 |
| TCTTTGCA | -0.167 |
| ATGACCCG | 0.131 |
| GCATACGA | -0.201 |
| CCGCAGAA | 0.0874 |
| CGTTTTCC | 0.0321 |
| CGAACTTA | 0.105 |
| CGACGTGC | -0.0466 |
| ATCGTCTA | -0.179 |
| CCTCGAAA | -0.27 |
| AAGGAGTA | 0.0501 |
| AATTGTCG | 0.0849 |
